Results from PubChem BioAssay AID686978 (National Center for Advancing Translational Sciences (NCATS), 2013).
“And” between values parts separate entries of the source, which are not always exact repeats. Equal entries are not always repeated. About 64,000 (15%) of roughly 420,000 compounds were called active. Inconclusive means that the source gave no clear call. Such entries were picked first, then a sample of the others. The call rests on the fitted dose curve; in most records, active means well fitted inhibition curve with a large enough effect; inconclusive means small, poorly fitted or top-dose-only effect; inactive means flat fitted curve, though single readings scatter. A potency beside an inconclusive call is a rough fit, not a confirmed value.

Test: qHTS for Inhibitors of human tyrosyl-DNA phosphodiesterase 1 (TDP1): qHTS in cells in absence of CPT; further: nearly all actives have a fitted effect of over 55% in size
Settings: DT40 Tdp1-/- hTDP1 cells, no CPT, ATP luminescence, 48 h; activity change, negative = growth inhibition: at 46.2 µM (top of the series) unless noted
Method in brief: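 Luminescent ATP content (CellTiter-Glo) served as the growth readout. Knockout chicken DT40 cells expressing human TDP1 were exposed to compounds without camptothecin for a minimum 48 hr at 37 °C.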
On the % scale 0 is the no-effect control and ±100 the full control effect; potency means the concentration at half of the fitted maximal effect; tags describe the fitted curve by direction and shape.

Row | SMILES | Potency | activity change, negative = growth inhibition
1 | COc1cc(OC)nc(N/N=C(\c2ccccc2)c2ccncc2)n1 | inactive | –
2 | O=C(CCCCCn1c(=O)[nH]c2ccccc2c1=O)N1CCN(c2ccc(Cl)cc2)CC1 | inconclusive: 18.4 µM [inhibitor, single point] | –
3 | CCOc1ccccc1N(CC(=O)Nc1ccc(OC)cc1)S(=O)(=O)c1ccccc1 | inconclusive: 23.1 µM [inhibitor, single point] | –
4 | CCOC(=O)[C@@H](C)NS(=O)(=O)N(Cc1ccccc1)[C@H](C(=O)OC)C(C)C | inconclusive: 22.4 µM [inhibitor, single point] and inconclusive: 25.9 µM [inhibitor, single point] | –
5 | CCOC(=O)CCC(=O)NNC(=O)COc1ccc(C(C)C)cc1Br | inconclusive: 29.1 µM [inhibitor, single point] | –
6 | O=C(CSc1nc2c([nH]c3ccccc32)c(=O)n1-c1cccc(Cl)c1)NCc1ccccc1 | inconclusive: 29.1 µM [inhibitor, single point] | –
7 | COC(=O)CN(c1cc([N+](=O)[O-])ccc1OC)S(C)(=O)=O | inactive | –
8 | CC(CNC(=O)CC[C@H]1O[C@@H](n2cnc3c(NC(=O)c4ccccc4)ncnc32)[C@H](O)[C@@H]1O)c1ccccc1 (stereo partly specified) | inactive | –
9 | CCSc1ccccc1C(=O)N1CCC2(CC1)CC(=O)c1ccccc1O2 | active: 16.4 µM | –
10 | COc1ccc(NC(=O)CN2C(=O)NC3(CCCc4ccccc43)C2=O)c(OC)c1 (stereo unspecified) | inconclusive: 25.9 µM [inhibitor, single point] | –
11 | O=C(Nc1ccc(Cl)cc1)c1cc(Br)ccc1OCC(=O)N1CCOCC1 | inconclusive: 20.6 µM [inhibitor, single point] | –
12 | CC(C)C1Oc2ccccc2N(CC(=O)N(Cc2ccccn2)C2CC2)C1=O (stereo unspecified) | inconclusive: 25.9 µM [inhibitor, partial curve] | –
13 | CC(=O)c1nn(-c2cccc(C)c2)cc1C(=O)c1cccc(Br)c1 | inactive | –
14 | CCc1c(C(=O)Nc2ccncc2)csc1C | active: 20.6 µM | –
15 | O=C(CSc1ncn[nH]1)N1N=C2/C(=C/c3ccccc3)CCCC2C1c1ccccc1 (stereo unspecified) | inconclusive: 20.6 µM [inhibitor, single point] | –
16 | Cc1cc(=O)oc2cc(OCC(=O)NC3(C#N)CCCCC3)c(Cl)cc12 | – | inconclusive: -30.9% [inhibitor]
17 | Cc1ccc(NC(=O)c2ccc3ccccc3n2)cc1S(=O)(=O)N(C)C | active: 11.6 µM | –
18 | CCc1nc2ccc(C(=O)N3CCN(c4cccc(OC)c4)CC3)cc2nc1CC | inconclusive: 25.9 µM [inhibitor, single point] and inconclusive: 18.4 µM [inhibitor, single point] | –
19 | c1ccc(Nc2nc(N3CCOCC3)nc(N3CCOCC3)n2)cc1 | active: 16.4 µM | –
20 | O=Cc1ccc(-c2c(-c3ccccc3)oc3c2C(OCCCCO)CCC3)o1 (stereo unspecified) | inconclusive: 20.6 µM [inhibitor, single point] | –
21 | COc1ccc(OCCOc2ccc(N(C)S(=O)(=O)c3ccccc3)cc2)cc1 | inconclusive: 29.1 µM [inhibitor, single point] | –
22 | Cc1ccccc1NC(=O)c1sc2nc3c(c(-c4ccco4)c2c1N)CCC3 | inconclusive: 20.6 µM [inhibitor, single point] | –

Row | SMILES | Potency | activity change, negative = growth inhibition
23 | O=C(CN1CCOCC1)NN=C(c1ccccc1)c1ccccc1 | inconclusive: 18.4 µM [inhibitor, single point] | –
24 | CCC/C=N/NC(=O)c1cc(-c2ccccc2)nc2ccccc12 | inconclusive: 25.9 µM [inhibitor, single point] | –
25 | COc1ccccc1CNC(=O)CSc1n[nH]c(N)n1 | inactive | –
26 | COc1ccc(OC)c(NS(=O)(=O)c2ccc3c(c2)n(C)c(=O)n3C)c1 | inconclusive: 15.8 µM [inhibitor, single point] | –
27 | COc1ccc(C2N=C(c3ccccc3)C(C)(C)N2O)cc1OC (stereo unspecified) | inconclusive: 20.6 µM [inhibitor, single point] | –
28 | Cc1cc(NC(=O)COC(=O)CCS(=O)(=O)c2cc(Cl)ccc2Cl)no1 | inconclusive: 29.1 µM [inhibitor, partial curve, poor fit] | –
29 | CCN1CCN(C(=O)c2ccc(CS(=O)(=O)Cc3ccccc3Cl)o2)CC1 | inactive | –
30 | COc1ccc2c(c1)[C@H]1[C@H](CO2)[C@H](c2ccccc2)[C@]2(C)C(=O)Nc3ccc(C)cc3C(=O)N12 | inconclusive: 23.1 µM [inhibitor, single point] | –
31 | Cc1ccc(S(=O)(=O)c2c(N)n(CCCN(C)C)c3nc4ccccc4nc23)cc1 | inconclusive: 29.1 µM [inhibitor, single point] | –
32 | O=C(CN1CCN(c2ccccn2)CC1)Nc1ccccc1C(=O)Nc1ccccc1 | inconclusive: 29.1 µM [inhibitor, single point] | –
33 | CCC(=O)N1CCc2cc(S(=O)(=O)NC(C(=O)NC3CCCc4ccccc43)C(C)C)ccc21 (stereo unspecified) | inconclusive: 29.1 µM [inhibitor, single point] | –
34 | O=C(Nc1ccc2c(c1)C(=O)N(c1ccccc1)C2=O)c1cccs1 | inconclusive: 29.1 µM [inhibitor, single point] | –
35 | O=C(NC1CC2CCCC(C1)N2Cc1ccc(F)cc1)c1ccc(F)cc1 (stereo unspecified) | – | inconclusive: -30.1% [inhibitor]
36 | Cc1ccc(C)c(-c2ccc(=O)n(Cc3ccc(F)cc3Cl)n2)c1 | inconclusive: 29.1 µM [inhibitor, single point] and inconclusive: 23.1 µM [inhibitor, partial curve] | –
37 | O=C(COC(=O)c1ccc(Cl)nc1)NNC(=O)c1ccc(Br)cc1 | inactive | –
38 | CCN(CC)c1ccc(C(=O)Nc2ccc3nc(N(CC)CC)cc(C)c3c2)cc1 | inconclusive: 18.4 µM [inhibitor, single point] | –
39 | Cc1nc2c3cc(F)ccc3n(Cc3ccccc3F)c2s1 | inconclusive: 18.4 µM [inhibitor, single point] | –
40 | Cc1ccccc1S(=O)(=O)Oc1ccc2ccc(O)cc2c1 | inconclusive: 14.6 µM [inhibitor, single point] | –
41 | Cc1cc(C(=O)N/N=C2\CC(=O)c3ccccc32)c(C)n1-c1ccccc1 | inconclusive: 10.3 µM [inhibitor, partial curve, poor fit] | –
42 | Cc1ccc(S(=O)(=O)N(CC(=O)NCc2ccncc2)Cc2ccc(F)cc2)cc1 | inconclusive: 16.4 µM [inhibitor, single point] | –
43 | O=C(CCCCCn1c(=S)[nH]c2cc3c(cc2c1=O)OCO3)NCCc1ccccc1 | inconclusive: 29.1 µM [inhibitor, single point] | –
44 | COc1ccc(NC(=O)N2CCCc3ccccc32)cc1 | inactive | –

Row | SMILES | Potency | activity change, negative = growth inhibition
45 | Cc1ccccc1NCc1nnc2n1CCCCC2 | inactive | –
46 | S=C(NC1CCCCCC1)NC1CCCC1 | inconclusive: 29.1 µM [inhibitor, single point] | –
47 | COc1ccccc1N(CC(=O)Nc1ccccc1C(=O)NCC(C)C)S(C)(=O)=O | inconclusive: 22.4 µM [inhibitor, single point] | –
48 | CCOC(=O)CCC(=O)N(CCN(C(=O)CCC(=O)OCC)c1ccccc1)c1ccccc1 | inactive | –
49 | CC1Sc2ccc(S(=O)(=O)CCC(=O)NC3CCCC(C)C3C)cc2NC1=O (stereo unspecified) | active: 20.6 µM | –
50 | CCc1ccc2ncc(C(=O)c3ccccc3)c(N3CCOCC3)c2c1 | inconclusive: 29.1 µM [inhibitor, single point] | –
51 | CO[C@H](C(=O)N(C)C[C@@H]1OCc2ccccc2-c2c(n(C)c3ccccc23)C(=O)N([C@H](C)CO)C[C@@H]1C)c1ccccc1 | inconclusive: 1.84 µM [inhibitor, partial curve] | –
52 | CCOC(=O)c1c(CSc2ccc(CC)cc2)oc2ccc(O)c(CN(C)C)c12 | active: 7.31 µM | –
53 | O=C(CNC1CCCCC1)NN=C(c1ccccc1)c1ccccc1 | inconclusive: 29.1 µM [inhibitor, single point] | –
54 | Cc1ccc2[nH]c(CSc3nnc(NC(=O)COc4ccccc4Cl)s3)cc(=O)c2c1 | inconclusive: 20.6 µM [inhibitor, single point] | –
55 | O=S(=O)(/N=C(/Nc1cccc2ccccc12)c1ccccc1)c1cccs1 | inconclusive: 29.1 µM [inhibitor, single point] | –
56 | CCOC(=O)c1oc2ccccc2c1NC(=O)COc1cccc(OC)c1 | inactive | –
57 | Cc1ccc(CNC(=O)c2sc3ncnc(N(C)C4CCCCC4)c3c2C)cc1 | active: 25.9 µM | –
58 | COc1ccc(/C=C(\C#N)C(=O)N2CCOCC2)cc1Br | inactive | –
59 | Oc1c(C(Nc2cccnc2)c2ccc(C(F)(F)F)cc2)ccc2cccnc12 (stereo unspecified) | active: 8.91 µM | –
60 | CC(=O)Nc1cc(-c2cccc(F)c2)cn2c(-c3ccc(F)cc3)cnc12 | active: 23.1 µM | –
61 | CCc1ccc(NC(=O)C2CCCN(S(=O)(=O)c3cccc4cccnc34)C2)cc1 (stereo unspecified) | active: 16.4 µM | –
62 | Cc1nc(CNS(=O)(=O)c2cccnc2)cs1 | inactive | –
63 | CCN(CC)C(=O)N1CCN(c2c([N+](=O)[O-])c(=O)oc3ccccc23)CC1 | inconclusive: 29.1 µM [inhibitor, single point] | –
64 | COc1cccc(/C=N/NC(=O)CNC(=O)c2ccncc2)c1O | inconclusive: 6.51 µM [inhibitor, single point] | –
65 | COc1cccc(CN(C)C(=O)c2ccccc2Sc2ccccc2C#N)c1 | inconclusive: 29.1 µM [inhibitor, single point] | –
66 | CC(=O)c1c(O)cc2n(c1=O)-c1ccc(Cl)cc1C2(C)C | inconclusive: 18.4 µM [inhibitor, single point] | –
